# This is one part of the list. These are enrichments in a pooled selection; single values are uncertain.
# T1: TERF1_TRF__P54274_58_268
# T1 chain: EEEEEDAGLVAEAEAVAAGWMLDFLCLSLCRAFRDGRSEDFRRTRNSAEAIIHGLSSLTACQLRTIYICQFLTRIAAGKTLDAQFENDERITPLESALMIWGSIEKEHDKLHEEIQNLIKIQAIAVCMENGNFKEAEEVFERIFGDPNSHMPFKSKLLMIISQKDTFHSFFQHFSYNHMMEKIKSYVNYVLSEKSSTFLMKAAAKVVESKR
# T2: TLN1_PTB__Q9Y490_309_401
# T2 chain: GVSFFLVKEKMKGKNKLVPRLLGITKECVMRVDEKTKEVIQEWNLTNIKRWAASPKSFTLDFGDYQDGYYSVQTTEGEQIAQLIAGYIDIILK
# T3: TLN2_PTB__Q9Y4G6_312_417
# T3 chain: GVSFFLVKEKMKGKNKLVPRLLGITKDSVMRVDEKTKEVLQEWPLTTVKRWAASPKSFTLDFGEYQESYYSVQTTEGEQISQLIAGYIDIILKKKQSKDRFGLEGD
# T4: VCL_Vinc__P18206_1_258
# T4 chain: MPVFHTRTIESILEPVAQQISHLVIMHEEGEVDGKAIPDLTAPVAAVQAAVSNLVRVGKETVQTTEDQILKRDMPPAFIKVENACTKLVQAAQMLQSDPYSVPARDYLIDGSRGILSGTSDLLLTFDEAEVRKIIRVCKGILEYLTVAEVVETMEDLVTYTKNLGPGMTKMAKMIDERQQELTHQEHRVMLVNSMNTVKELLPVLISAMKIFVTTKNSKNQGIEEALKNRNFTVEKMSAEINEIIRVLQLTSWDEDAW
# T5: ZMYND11_coiled-coil-MYND__Q15326_480_602
# T5 chain: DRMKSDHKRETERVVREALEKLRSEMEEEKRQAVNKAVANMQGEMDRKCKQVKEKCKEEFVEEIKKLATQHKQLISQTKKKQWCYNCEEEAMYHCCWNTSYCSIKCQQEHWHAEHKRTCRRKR
# Tests used:
# Experiment in all cases: mean normalised NGS count of phage-displayed peptide after selection on bait (% of reads); baits are purified protein domains named by gene / domain / UniProt id / residues; peptides come from disordered regions of human proteins; higher = stronger enrichment / binding
# Src_SH3__P12931_87_144 = biological target: Src_SH3__P12931_87_144
# TERF1_TRF__P54274_58_268 = biological target: T1, TERF1_TRF__P54274_58_268
# TLN1_PTB__Q9Y490_309_401 = biological target: T2, TLN1_PTB__Q9Y490_309_401
# TLN2_PTB__Q9Y4G6_312_417 = biological target: T3, TLN2_PTB__Q9Y4G6_312_417
# VCL_Vinc__P18206_1_258 = biological target: T4, VCL_Vinc__P18206_1_258
# [1] = biological target: WDR5_WD_1234567_P61964_21_334
# [2] = biological target: T5, ZMYND11_coiled-coil-MYND__Q15326_480_602
# [3] = replicate selections in which the peptide was seen: 5
# [4] = replicate selections in which the peptide was seen: 6
# [5] = replicate selections in which the peptide was seen: 2
# [6] = replicate selections in which the peptide was seen: 3
# [7] = replicate selections in which the peptide was seen: 4
binder,measurement,setting,value
VLPSLPAIPPTNAMGL [MYPN 833-848 wt],mean normalised NGS count,Src_SH3__P12931_87_144; [3],0.676
EPPLPPGRVTLVDVTR [TTN 26221-26236 wt],mean normalised NGS count,Src_SH3__P12931_87_144; [3],0.0433
KPPPLPRSNTVASFFS [TSC2 1262-1277 mut P49815.S1276F],mean normalised NGS count,Src_SH3__P12931_87_144; [4],0.494
AFSGSLLPVKPVEIEI [XPC 152-167 mut Q01831.R155G],mean normalised NGS count,TERF1_TRF__P54274_58_268; [5],0.00308
SSVIHYDDKAIERLLD [CHD4 1244-1259 wt],mean normalised NGS count,TERF1_TRF__P54274_58_268; [5],13.6
EDLQLSPIAPEERLLA [EPAS1 538-553 mut Q99814.F540L],mean normalised NGS count,TERF1_TRF__P54274_58_268; [5],0.0376
YLSLLPVATFKGWMDI [SCN1A 1422-1437 mut P35498.Q1427P],mean normalised NGS count,TERF1_TRF__P54274_58_268; [6],0.263
YLSLLPVATFKGWMDI [SCN4A 1422-1437 mut P35498.Q1427P],mean normalised NGS count,TERF1_TRF__P54274_58_268; [6],0.263
YLSLLPVATFKGWMDI [SCN2A 1422-1437 mut P35498.Q1427P],mean normalised NGS count,TERF1_TRF__P54274_58_268; [6],0.263
EDFQLSPIAPEERLLA [EPAS1 538-553 wt],mean normalised NGS count,TERF1_TRF__P54274_58_268; [6],26
APYILMDGEDFQLSPI [EPAS1 530-545 mut Q99814.P534L],mean normalised NGS count,TERF1_TRF__P54274_58_268; [7],8.16
APYIPMDGEDFQLSPI [EPAS1 530-545 wt],mean normalised NGS count,TERF1_TRF__P54274_58_268; [7],0.183
WGELEVQRVKFLNYLS [RYR1 4542-4557 wt],mean normalised NGS count,TERF1_TRF__P54274_58_268; [3],20.4
ELEVQRVKFLNYLSRN [RYR1 4544-4559 wt],mean normalised NGS count,TERF1_TRF__P54274_58_268; [4],0.362
HVQELLVKRFQHTIRS [ABCA4 1354-1369 mut P78363.A1357E],mean normalised NGS count,TERF1_TRF__P54274_58_268; [4],22.6
TWIENKLYGTSDPNWP [RET 1055-1070 mut P07949.M1064T],mean normalised NGS count,TLN1_PTB__Q9Y490_309_401; [7],6.69
same,mean normalised NGS count,TLN2_PTB__Q9Y4G6_312_417; [6],1.12
LNPMVIWHYPGEEVNA [FLVCR2 331-346 mut Q9UPI3.R333P],mean normalised NGS count,TLN1_PTB__Q9Y490_309_401; [7],5.17
same,mean normalised NGS count,TLN2_PTB__Q9Y4G6_312_417; [7],0.767
ALPSTWIENKPYGMSD [RET 1051-1066 mut P07949.L1061P],mean normalised NGS count,TLN1_PTB__Q9Y490_309_401; [3],0.0603
DLPERIMMNWVSSRLG [ORC1 657-672 mut Q13415.R666W],mean normalised NGS count,TLN1_PTB__Q9Y490_309_401; [3],1.51
ALPSTWIENKLYGMSD [RET 1051-1066 wt],mean normalised NGS count,TLN1_PTB__Q9Y490_309_401; [4],113
same,mean normalised NGS count,TLN2_PTB__Q9Y4G6_312_417; [4],77
ALPSTWIENKLYGTSD [RET 1051-1066 mut P07949.M1064T],mean normalised NGS count,TLN1_PTB__Q9Y490_309_401; [4],2.72
same,mean normalised NGS count,TLN2_PTB__Q9Y4G6_312_417; [4],1.83
AVPSTWIENKLYGMSD [RET 1051-1066 mut P07949.L1052V],mean normalised NGS count,TLN1_PTB__Q9Y490_309_401; [4],32
same,mean normalised NGS count,TLN2_PTB__Q9Y4G6_312_417; [3],0.751
RMVIWHYPGEEVNAGR [FLVCR2 333-348 wt],mean normalised NGS count,TLN1_PTB__Q9Y490_309_401; [4],68.1
LNRMVIWHYPGEEVNA [FLVCR2 331-346 wt],mean normalised NGS count,TLN2_PTB__Q9Y4G6_312_417; [5],0.103
RENLKVWIYPEGTRND [AGPAT2 162-177 wt],mean normalised NGS count,TLN2_PTB__Q9Y4G6_312_417; [6],0.00406
TELRAVMDWVWMDTTL [PIEZO2 2345-2360 mut Q9H5I5.T2356M],mean normalised NGS count,TLN2_PTB__Q9Y4G6_312_417; [7],14.3
ALPSTWIENKLAGMSD [RET 1051-1066 mut P07949.Y1062C],mean normalised NGS count,TLN2_PTB__Q9Y4G6_312_417; [3],0.0291
MGLLEAAARALVGALF [PLP1 1-16 mut P60201.P15L],mean normalised NGS count,VCL_Vinc__P18206_1_258; [5],25.5
GLLEAAARALVGALFA [PLP1 2-17 mut P60201.P15L],mean normalised NGS count,VCL_Vinc__P18206_1_258; [5],16.4
WEQAISNDPELLEALY [MYOZ2 152-167 wt],mean normalised NGS count,VCL_Vinc__P18206_1_258; [6],0.374
WGWKLRWTVALLPAAA [LDLR 4-19 mut P01130.L16P],mean normalised NGS count,[1]; [5],0.41
VYIDRVRSVETENAGL [LMNA 44-59 mut P02545.L52V],mean normalised NGS count,[1]; [5],8.02
TLLNIPIKRTMIQSPS [DSP 974-989 wt],mean normalised NGS count,[1]; [5],0.111
ALEAKIAQLEEQLDNE [MYH9 1811-1826 wt],mean normalised NGS count,[1]; [5],0.159
IRLLGAYLFIISRVQG [BMPR1A 8-23 wt],mean normalised NGS count,[1]; [5],0.0592
EVAIKLEAVKAKHPQL [CSNK1D 34-49 mut P48730.T44A],mean normalised NGS count,[1]; [5],0.875
EVAIKLEAVKAKHPQL [CSNK1E 34-49 mut P48730.T44A],mean normalised NGS count,[1]; [5],0.875
ASFLFDVLSTAYVALS [ABCA4 1781-1796 mut P78363.P1788L],mean normalised NGS count,[1]; [5],3.38
MATRGGAGMAMAVWSL [TMEM67 1-16 mut Q5HYA8.V9M],mean normalised NGS count,[1]; [5],0.0679
MEATRTRQHLGATGGP [CLN6 1-16 mut Q9NWW5.R6T],mean normalised NGS count,[1]; [5],0.126
PASKDVLSNLVMISRG [BRCA2 773-788 mut P51587.T774A],mean normalised NGS count,[1]; [6],0.174
PTSKDVLSNLGMISRG [BRCA2 773-788 mut P51587.V783G],mean normalised NGS count,[1]; [6],0.871
FLSRLPSPPPVSPIAT [BRCA2 3273-3288 mut P51587.L3279S],mean normalised NGS count,[1]; [6],0.083
ESTGLGLLRASIGYFL [WFS1 550-565 wt],mean normalised NGS count,[1]; [7],1.09
PTSKDVLSNLVMISRG [BRCA2 773-788 wt],mean normalised NGS count,[1]; [7],2.05
PTSKGVLSNLVMISRG [BRCA2 773-788 mut P51587.D777G],mean normalised NGS count,[1]; [3],4.19
EPPQIESFYPPLDEPS [NBN 189-204 mut O60934.Q189E],mean normalised NGS count,[2]; [5],0.00951
KEDSLAPNLIDNRSWP [BRCA2 549-564 mut P51587.G561R],mean normalised NGS count,[2]; [5],0.0262
LAPNLIDNRSWPATTT [BRCA2 553-568 mut P51587.G561R],mean normalised NGS count,[2]; [5],0.00407
TDGIIPILEKLAPSED [ATF7IP 432-447 mut Q6VMQ6.E434G],mean normalised NGS count,[2]; [5],0.0055
MPSLQHSTPPGMTPPQ [CREBBP 866-881 mut Q92793.T872S],mean normalised NGS count,[2]; [5],0.0056
MPSLQHTTPPGMTPPQ [CREBBP 866-881 wt],mean normalised NGS count,[2]; [5],0.0113
TIPQLTYDGHPASLPL [PIAS1 93-108 mut O75925.S106L],mean normalised NGS count,[2]; [6],0.025
TIPQLTYDGHPASSPL [PIAS1 93-108 wt],mean normalised NGS count,[2]; [6],0.0111
VTRNDVAPTLMSVPQY [CDH1 782-797 mut P12830.R796Q],mean normalised NGS count,[2]; [6],0.0129
DQIQQPLTNQVMPDIV [DYRK1A 60-75 wt],mean normalised NGS count,[2]; [6],0.0844

# From the supplement of paper PMC11369174, “Proteome-scale characterisation of motif-based interactome rewiring by disease mutations” (Molecular Systems Biology, 2024)
